{"source": "the BET-seq Pho4 binding data (Le et al. 2018)", "note": "This is one part of the list. The energies were worked out here from pooled read counts, against the library average; single values are noisy."}
{"target": "T1, Pho4 (S. cerevisiae) (UniProt P07270)", "T1 sequence": "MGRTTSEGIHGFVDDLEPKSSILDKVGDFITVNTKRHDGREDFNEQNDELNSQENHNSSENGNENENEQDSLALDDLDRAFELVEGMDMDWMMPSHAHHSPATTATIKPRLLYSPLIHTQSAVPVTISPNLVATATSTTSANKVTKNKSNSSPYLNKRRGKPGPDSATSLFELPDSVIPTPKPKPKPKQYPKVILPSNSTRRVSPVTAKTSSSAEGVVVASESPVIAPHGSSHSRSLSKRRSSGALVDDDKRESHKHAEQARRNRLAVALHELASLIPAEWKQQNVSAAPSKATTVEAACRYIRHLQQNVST", "assay": "relative binding free energy (BET-seq); higher = weaker binding", "conditions": "reference: library average", "units": {"relative binding free energy": "kcal/mol"}}
{"sequence": "GCGATCACGTGTGGAT", "relative binding free energy": 0.25}
{"sequence": "GATGGCACGTGAGATG", "relative binding free energy": 0.32}
{"sequence": "TTTATCACGTGTAGCA", "relative binding free energy": 0.17}
{"sequence": "TAACTCACGTGTATTT", "relative binding free energy": 0.29}
{"sequence": "CATGTCACGTGAGGGT", "relative binding free energy": 0.22}
{"sequence": "TGACGCACGTGAATGT", "relative binding free energy": 0.28}
{"sequence": "AGGCGCACGTGTGTGA", "relative binding free energy": 0.01}
{"sequence": "ATAGCCACGTGGCGGG", "relative binding free energy": -0.22}
{"sequence": "TGGGACACGTGATAGT", "relative binding free energy": 0}
{"sequence": "TGTCTCACGTGCTGGT", "relative binding free energy": 0.11}
{"sequence": "AGGGGCACGTGCAATG", "relative binding free energy": -0.2}
{"sequence": "GTGATCACGTGTTGAG", "relative binding free energy": 0.02}
{"sequence": "TTTGACACGTGTATTA", "relative binding free energy": 0.07}
{"sequence": "TTAGACACGTGGGGGT", "relative binding free energy": -0.17}
{"sequence": "ACGATCACGTGTGTGG", "relative binding free energy": 0.2}
{"sequence": "GTAGACACGTGCAGGT", "relative binding free energy": -0.03}
{"sequence": "GGAATCACGTGTGTCG", "relative binding free energy": 0.18}
{"sequence": "TGCTACACGTGTTTTT", "relative binding free energy": 0.25}
{"sequence": "ATAGACACGTGGGGGT", "relative binding free energy": -0.05}
{"sequence": "TGCTTCACGTGGTGCT", "relative binding free energy": 0.31}
{"sequence": "TATGTCACGTGATAAT", "relative binding free energy": 0.18}
{"sequence": "GGGCTCACGTGTGGGT", "relative binding free energy": 0.26}
{"sequence": "AATTGCACGTGTGGGT", "relative binding free energy": 0.1}
{"sequence": "TGACGCACGTGTGGCT", "relative binding free energy": -0.04}
{"sequence": "TTAGTCACGTGAAGAG", "relative binding free energy": 0.35}
{"sequence": "TTGAGCACGTGTTTGA", "relative binding free energy": -0.05}
{"sequence": "GCGGTCACGTGAATTG", "relative binding free energy": 0.36}
{"sequence": "AGAGGCACGTGACAGG", "relative binding free energy": -0.09}
{"sequence": "TTGTTCACGTGTGGCA", "relative binding free energy": 0.34}
{"sequence": "TGGTGCACGTGGGTGC", "relative binding free energy": -0.14}
{"sequence": "GATTTCACGTGAGGAT", "relative binding free energy": 0.51}
{"sequence": "CGTGGCACGTGTAAGC", "relative binding free energy": 0.14}
{"sequence": "TGTAGCACGTGAGGCT", "relative binding free energy": 0.04}
{"sequence": "TGTAACACGTGATGGA", "relative binding free energy": 0.04}
{"sequence": "TGGGGCACGTGGAAGT", "relative binding free energy": -0.06}
{"sequence": "ATGAGCACGTGTGTCA", "relative binding free energy": 0}
{"sequence": "ATGGTCACGTGGTTTT", "relative binding free energy": 0.21}
{"sequence": "AGTGTCACGTGGTTAA", "relative binding free energy": -0.15}
{"sequence": "GTGGTCACGTGGGGCG", "relative binding free energy": 0.09}
{"sequence": "CGTCTCACGTGGGGTT", "relative binding free energy": -0.07}
{"sequence": "ACTGGCACGTGGGGAA", "relative binding free energy": -0.14}
{"sequence": "GAATGCACGTGGCTGG", "relative binding free energy": -0.03}
{"sequence": "AACGGCACGTGTTTGA", "relative binding free energy": -0.05}
{"sequence": "AGAGGCACGTGCGGGG", "relative binding free energy": -0.22}
{"sequence": "TTTTGCACGTGTTTCG", "relative binding free energy": 0.05}
{"sequence": "TAGATCACGTGATAAT", "relative binding free energy": 0.24}
{"sequence": "TTCCTCACGTGGGGGT", "relative binding free energy": -0.02}
{"sequence": "TTTTTCACGTGGACCG", "relative binding free energy": 0.22}
{"sequence": "TTGTACACGTGGGGGA", "relative binding free energy": -0.01}
{"sequence": "AGGGGCACGTGGTAGC", "relative binding free energy": -0.2}
{"sequence": "GAGTGCACGTGATCTG", "relative binding free energy": 0.12}
{"sequence": "GAATTCACGTGGTCAG", "relative binding free energy": 0.36}
{"sequence": "GTAATCACGTGGTCTT", "relative binding free energy": 0.14}
{"sequence": "TTTGTCACGTGTTATG", "relative binding free energy": 0.06}
{"sequence": "GGCGGCACGTGCTTGG", "relative binding free energy": -0.21}
{"sequence": "ATTACCACGTGTGGGT", "relative binding free energy": -0.04}
{"sequence": "TTAGACACGTGGTTAC", "relative binding free energy": 0.01}
{"sequence": "TGTGTCACGTGGAGTC", "relative binding free energy": 0.12}
{"sequence": "ATTATCACGTGAGTCT", "relative binding free energy": 0.41}
{"sequence": "GTCTGCACGTGATGAT", "relative binding free energy": 0.16}
{"sequence": "TAGGTCACGTGAAGCG", "relative binding free energy": 0.22}
{"sequence": "CGCGGCACGTGGGGGG", "relative binding free energy": -0.23}
{"sequence": "TGGTTCACGTGCGAAA", "relative binding free energy": 0.26}
{"sequence": "TTTTTCACGTGGTTTA", "relative binding free energy": 0.26}
{"sequence": "AGAATCACGTGGGAAG", "relative binding free energy": 0.22}
{"sequence": "AGGGACACGTGGAGCT", "relative binding free energy": -0.05}
{"sequence": "AATGACACGTGTTTGG", "relative binding free energy": 0.06}
{"sequence": "AGGGGCACGTGTGCAT", "relative binding free energy": -0.16}
{"sequence": "CATATCACGTGTGTGG", "relative binding free energy": -0.08}
{"sequence": "ACGGGCACGTGTGTAG", "relative binding free energy": -0.13}
{"sequence": "GTTATCACGTGTTCTT", "relative binding free energy": 0.23}
{"sequence": "TAGGACACGTGCATGT", "relative binding free energy": 0.06}
{"sequence": "TATTACACGTGTGGTG", "relative binding free energy": 0.04}
{"sequence": "TATTTCACGTGCTCGT", "relative binding free energy": 0.17}
{"sequence": "TGAATCACGTGATAAG", "relative binding free energy": 0.26}
{"sequence": "TTAAGCACGTGAGCTT", "relative binding free energy": 0.22}
{"sequence": "ATATTCACGTGGGAAG", "relative binding free energy": 0.12}
{"sequence": "CTGTACACGTGAGGGG", "relative binding free energy": 0.3}
{"sequence": "CATTACACGTGTGTGT", "relative binding free energy": 0.14}
{"sequence": "TTGAACACGTGTGAGA", "relative binding free energy": 0.08}
{"sequence": "TGTATCACGTGTTTCG", "relative binding free energy": 0.17}
{"sequence": "TGTCCCACGTGATGGG", "relative binding free energy": 0.1}
{"sequence": "TTATACACGTGTGGGA", "relative binding free energy": 0.1}
{"sequence": "GATAGCACGTGGTCAT", "relative binding free energy": 0.06}
{"sequence": "AGGTTCACGTGGTTAC", "relative binding free energy": 0.19}
{"sequence": "ATAAGCACGTGGTGTT", "relative binding free energy": -0.15}
{"sequence": "GTTGACACGTGAGATG", "relative binding free energy": 0.2}
{"sequence": "ATGAGCACGTGATAGG", "relative binding free energy": 0.04}
{"sequence": "AGGTTCACGTGATAGT", "relative binding free energy": 0.32}
{"sequence": "TTCATCACGTGGTATA", "relative binding free energy": 0.12}
{"sequence": "CGGAGCACGTGTGGAA", "relative binding free energy": 0.04}
{"sequence": "TAAAGCACGTGCGTGG", "relative binding free energy": -0.2}
{"sequence": "GGGTACACGTGGGTGT", "relative binding free energy": -0.02}
{"sequence": "CTAGGCACGTGGGGAT", "relative binding free energy": -0.2}
{"sequence": "GTTGGCACGTGTAGGT", "relative binding free energy": 0.07}
{"sequence": "AATCTCACGTGGGGGC", "relative binding free energy": 0.14}
{"sequence": "TATGTCACGTGGATCT", "relative binding free energy": 0.03}
{"sequence": "GGGAACACGTGTTTGA", "relative binding free energy": 0.05}
{"sequence": "GTACACACGTGTGTGT", "relative binding free energy": 0.06}
{"sequence": "AAGTGCACGTGCTTGG", "relative binding free energy": -0.06}
{"sequence": "AAAAGCACGTGATGGA", "relative binding free energy": 0.21}
{"sequence": "AGTTGCACGTGGGCCT", "relative binding free energy": -0.16}
{"sequence": "GGATTCACGTGTGGCG", "relative binding free energy": 0.25}
{"sequence": "GGATACACGTGGATGA", "relative binding free energy": 0.13}
{"sequence": "GAGGGCACGTGGGGAG", "relative binding free energy": -0.1}
{"sequence": "GTCTTCACGTGGGGCG", "relative binding free energy": 0}
{"sequence": "GAAGGCACGTGGGGTG", "relative binding free energy": -0.2}
{"sequence": "CGTTTCACGTGAATGG", "relative binding free energy": 0.27}
{"sequence": "AGTTTCACGTGCGTAT", "relative binding free energy": 0.26}
{"sequence": "GAGGACACGTGAGTGG", "relative binding free energy": 0.34}
{"sequence": "TTCTTCACGTGCTTTT", "relative binding free energy": 0.34}
{"sequence": "TGTTACACGTGACAGT", "relative binding free energy": 0.07}
{"sequence": "TATATCACGTGGAGAT", "relative binding free energy": 0.21}
{"sequence": "TTATGCACGTGGATGT", "relative binding free energy": -0.16}
{"sequence": "CTCGTCACGTGATTTG", "relative binding free energy": 0.22}
{"sequence": "GGGTTCACGTGGTCTG", "relative binding free energy": 0.15}
{"sequence": "AGGTTCACGTGAGAGC", "relative binding free energy": 0.51}
{"sequence": "CTGAGCACGTGGGAAT", "relative binding free energy": -0.04}
{"sequence": "CTGTGCACGTGAAGCG", "relative binding free energy": 0.29}
{"sequence": "TATGCCACGTGTGTGA", "relative binding free energy": -0.01}
{"sequence": "GTTGGCACGTGTTTTA", "relative binding free energy": 0.04}
{"sequence": "GGACTCACGTGCGGGG", "relative binding free energy": 0.2}
{"sequence": "TTTGTCACGTGGAATA", "relative binding free energy": 0.14}
{"sequence": "TTAGTCACGTGGGCGT", "relative binding free energy": -0.06}
{"sequence": "ACGGTCACGTGTTAAG", "relative binding free energy": 0.17}
{"sequence": "GCGCGCACGTGTTGGG", "relative binding free energy": 0}
{"sequence": "GGTTACACGTGCGGTG", "relative binding free energy": 0.1}
{"sequence": "GGATGCACGTGTGTGT", "relative binding free energy": -0.02}
{"sequence": "TGACTCACGTGGGCTG", "relative binding free energy": 0.14}
{"sequence": "GGAATCACGTGGAGTG", "relative binding free energy": 0.08}
{"sequence": "TAAGTCACGTGATGAT", "relative binding free energy": 0.23}
{"sequence": "GTTTACACGTGTAATA", "relative binding free energy": 0.16}
{"sequence": "TTTATCACGTGTTGGA", "relative binding free energy": 0.16}
{"sequence": "TTGCGCACGTGAGTTT", "relative binding free energy": 0.18}
{"sequence": "TCGATCACGTGTGTGG", "relative binding free energy": 0.13}
{"sequence": "GTTATCACGTGCGTGA", "relative binding free energy": 0.06}
{"sequence": "ATTGTCACGTGTCGTG", "relative binding free energy": 0.09}
{"sequence": "TGGTTCACGTGATTAT", "relative binding free energy": 0.43}
{"sequence": "TACAGCACGTGGTTGG", "relative binding free energy": -0.06}
{"sequence": "GGTGACACGTGCGGAG", "relative binding free energy": -0.07}
{"sequence": "GGTGGCACGTGTGTAA", "relative binding free energy": 0.05}
{"sequence": "ATAAGCACGTGGGAAT", "relative binding free energy": -0.13}
{"sequence": "AAAGGCACGTGGAGTT", "relative binding free energy": -0.12}
{"sequence": "TGTTGCACGTGATACT", "relative binding free energy": 0}
{"sequence": "TTAAGCACGTGCATTT", "relative binding free energy": -0.1}
{"sequence": "GTTCTCACGTGTGGGG", "relative binding free energy": 0.28}
